Laboratory results as given in PubChem BioAssay AID1768 (National Center for Advancing Translational Sciences (NCATS), 2009).
“And” between values parts separate entries of the source, which are not always exact repeats. Equal values may be shown once. Among all 270,000 compounds or so, about 620 (0.23%) were called active. Inconclusive results, whose numbers are uncertain, are shown with a selection of clear calls. The call rests on the fitted dose curve; in most records, active means well fitted inhibition curve with a large enough effect in the polarisation, with a control signal flat (not every such curve was filed as active); inconclusive means small, poorly fitted or top-dose-only effect, or effect the other way, or a change in a side signal; inactive means no such curve, though single readings can be large or run the other way; the % refers to the polarisation. Where the call is inconclusive, the potency comes from a doubtful curve fit. A note “side channel” means that the fit belongs to a control or component signal, not to the main read-out.

target: Menin (Homo sapiens) (UniProt O00255); assay: qHTS Assay for Inhibitors Targeting the Menin-MLL Interaction in MLL Related Leukemias: Competition With Texas Red Labeled MLL-derived Mutant Peptide; details: fluorescence polarization; FP activity change, negative = inhibition: at 61.6 µM (top of the series); on FP activity change, negative = inhibition: % of control where 0% means no effect
Chain of UniProt O00255 (O00255 whole entry, looked up): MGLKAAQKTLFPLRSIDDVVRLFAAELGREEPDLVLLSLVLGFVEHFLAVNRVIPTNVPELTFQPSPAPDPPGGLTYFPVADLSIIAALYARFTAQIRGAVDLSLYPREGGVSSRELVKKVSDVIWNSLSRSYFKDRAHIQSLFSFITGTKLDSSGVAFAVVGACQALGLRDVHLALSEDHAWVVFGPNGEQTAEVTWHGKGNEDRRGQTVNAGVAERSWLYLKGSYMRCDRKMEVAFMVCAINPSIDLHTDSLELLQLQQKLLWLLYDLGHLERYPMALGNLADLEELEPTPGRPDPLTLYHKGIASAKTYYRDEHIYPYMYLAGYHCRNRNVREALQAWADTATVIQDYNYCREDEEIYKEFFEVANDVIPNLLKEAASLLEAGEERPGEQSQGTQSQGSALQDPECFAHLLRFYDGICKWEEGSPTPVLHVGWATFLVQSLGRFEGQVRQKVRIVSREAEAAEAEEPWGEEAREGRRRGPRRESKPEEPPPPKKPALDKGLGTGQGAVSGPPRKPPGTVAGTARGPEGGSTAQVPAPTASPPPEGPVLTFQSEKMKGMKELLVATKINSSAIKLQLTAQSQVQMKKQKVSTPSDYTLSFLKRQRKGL
Potency means the concentration at half of the fitted maximal effect; tags describe the fitted curve by direction and shape or compound fluorescence and quenching.

Structure (SMILES)	Potency	FP activity change, negative = inhibition
CCN1C(=O)/C(=C2/Sc3ccccc3N2CCCS(=O)(=O)O)SC1=S	inconclusive: 31.6 µM [quencher, side channel, single point] and inconclusive: 12.6 µM [quencher, side channel, partial curve]	–
CCN(c1ccccc1)S(=O)(=O)c1ccc(C(=O)Nc2nnc(-c3ccco3)o2)cc1	inconclusive: 11.2 µM [quencher, side channel, partial curve]	–
COCCNC(=O)/C(C#N)=C/c1cc(C)n(-c2ccc(C)cc2)c1C	inconclusive: 17.8 µM [fluorescent, side channel, partial curve]	–
Cc1ccc(S(=O)(=O)c2c(N)n(NC(=O)c3ccccc3C)c3nc4ccccc4nc23)cc1	inconclusive: 39.8 µM [inhibitor, single point]	–
O=C1CN(C(=O)c2ccccc2)C(c2ccccc2)c2cc(Cl)ccc2N1 (stereo not given)	inconclusive: 2.51 µM [inhibitor, full curve, poor fit]	–
O=C(O)c1cccc(S(=O)(=O)Nc2ccc(OCc3ccccc3)cc2)c1	inconclusive: 25.1 µM [quencher, side channel, single point]	–
Cc1cccc[n+]1CC(=O)/C=C1\N(C)c2ccccc2C1(C)C	inconclusive: 17.8 µM [fluorescent, side channel, partial curve]	–
COc1ccc(NC(=O)CCOc2ccccc2)cc1	inconclusive: 20 µM [quencher, side channel, single point]	–
C=CCSc1nsc(NC(=O)Nc2cccc(C(C)=O)c2)n1	inconclusive: 11.2 µM [quencher, side channel, partial curve]	–
CC1CC(C)CN(C(=O)c2cc3cc(Br)cc(Br)c3o2)C1 (stereo not given)	inconclusive: 8.91 µM [fluorescent, side channel, partial curve]	–
CN(C)c1ccc(/C=N/Nc2cc(N3CCOCC3)nc(N3CCOCC3)n2)cc1	inconclusive: 35.5 µM [quencher, side channel, single point]	–
O=C(CCN1C(=O)C2C3C=CC(C3)C2C1=O)NCc1cccnc1 (stereo not given)	–	inactive: 20.7%
CCCCC(=O)Nc1nnc(S(=O)(=O)N(CC)c2ccccc2)s1	inconclusive: 28.2 µM [fluorescent, side channel, partial curve]	–
CCCCCOc1ccc(CN2CCOCC2)cc1Cl	inconclusive: 10 µM [inhibitor, full curve, poor fit]	–
O=C(COc1ccc(S(=O)(=O)N2CCCC2)cc1Cl)NC1CCCC1	inconclusive: 25.1 µM [fluorescent, side channel, single point]	–
CC(=O)c1cc(O)c2ccccc2c1O	inconclusive: 20 µM [quencher, side channel, partial curve]	–
COC(=O)c1cccc(NC(=O)/C=C/c2ccc3c(c2)OCO3)c1	inconclusive: 22.4 µM [quencher, side channel, single point]	–
O=C(Nc1ccc(NC(=O)c2ccc3c(c2)OCCO3)cc1)c1ccccc1	inconclusive: 39.8 µM [fluorescent, single point]	–
Cc1ccc(N2C(=O)C3N=NN(CC(=O)N4N=C(c5cccc6ccccc56)CC4c4ccccc4)C3C2=O)cc1 (stereo not given)	inconclusive: 4.47 µM [inhibitor, full curve]	–
CC(/C=N/Nc1nnc(C)c(=O)[nH]1)=C\c1ccccc1	inconclusive: 100 µM [inhibitor, partial curve, poor fit]	–
CCC(=O)N(Cc1cc2cc(OC)ccc2[nH]c1=O)c1ccccc1C	inconclusive: 8.91 µM [fluorescent, side channel, partial curve]	–
CCc1ccc(-c2nc(CSCC(=O)N3CCN(c4ccccn4)CC3)c(C)o2)cc1	inconclusive: 6.31 µM [fluorescent, side channel, partial curve]	–
CCOc1ccccc1Oc1cn[nH]c1-c1ccc(OCC(=O)NN)cc1O	inconclusive: 39.8 µM [quencher, single point]	–
CCOc1ccc(NC(=O)CN2C(=O)S/C(=C/c3cccn3C)C2=O)cc1	inconclusive: 8.91 µM [inhibitor, partial curve]	–
COc1cc(OC)c2c(c1O)OC(c1ccccc1)CC2=O (stereo not given)	inconclusive: 11.2 µM [quencher, side channel, partial curve]	–
O=[N+]([O-])c1cc(/C=N/O)ccc1SCc1ccccc1Cl	inconclusive: 20 µM [quencher, side channel, partial curve]	–
CC(C)CCNC(=O)NC(=O)COC(=O)/C=C/c1cc(Br)ccc1F	inconclusive: 3.16 µM [fluorescent, side channel, full curve]	–
O=C(CSc1nc2cc(C(=O)O)ccc2c(=O)n1-c1ccc(F)cc1)Nc1ccc(F)c(F)c1F	inconclusive: 14.1 µM [quencher, side channel, partial curve]	–

Structure (SMILES)	Potency	FP activity change, negative = inhibition
COC(=O)Nc1csc2c1NC(=O)CCCC2	–	inactive: 3.98%
COc1cc2oc(=O)cc(-c3ccc(-c4ccc(CO)cc4)cc3)c2c(OC)c1OC	inconclusive: 39.8 µM [fluorescent, side channel, single point]	–
CCOC(=O)c1c(-c2ccccc2)csc1NC(=S)NC(=O)c1ccccc1	inconclusive: 25.1 µM [inhibitor, single point]	–
O=C(c1cccc(F)c1)N1CCN(Cc2cccc(Br)c2)CC1	inconclusive: 5.01 µM [inhibitor, full curve]	–
O=C(O)/C=C/C(=O)Nc1ccc(C(=O)c2ccccc2)cc1	inconclusive: 14.1 µM [fluorescent, side channel, partial curve]	–
Cc1cc(NC(=O)CSc2nnc(-c3c[nH]c4ccccc34)n2-c2ccc(F)cc2)no1	inconclusive: 39.8 µM [inhibitor, single point]	–
O=C(CN1CCCCC1)N1c2ccccc2Sc2ccc(C(F)(F)F)cc21	inconclusive: 22.4 µM [inhibitor, single point]	–
Cc1nc(N)nc(N/N=C/c2c(F)cccc2Cl)n1	inconclusive: 12.6 µM [inhibitor, partial curve]	–
Cc1ccc2[nH]c3c(c2c1)CCCC3=O	–	inactive: 4.78%
CCOc1ccc(N=Nc2c(N)[nH][nH]c2=O)cc1	inconclusive: 25.1 µM [quencher, side channel, single point]	–
O=C(CCCc1ccccc1)NCCC1=CCCCC1	inconclusive: 20 µM [inhibitor, partial curve, poor fit]	–
COc1ccc2[nH]c(C(=O)O)c(NC(=O)c3cc(OC)c(OC)c(OC)c3)c2c1	inconclusive: 15.8 µM [quencher, side channel, partial curve]	–
CC(C)(C)c1ccc(C(=O)NNC(=O)Cc2cccc3ccccc23)cc1	inconclusive: 17.8 µM [fluorescent, side channel, partial curve]	–
Cc1ccsc1/C=N/Nc1ccc(F)cc1F	inconclusive: 17.8 µM [quencher, side channel, partial curve]	–
Cc1csc(SCC(=O)NC(=O)Cc2ccccc2)n1	inconclusive: 3.16 µM [inhibitor, full curve, poor fit]	–
C#CCn1cc(/C=N/Nc2nc3ccccc3[nH]2)c2ccccc21	inconclusive: 20 µM [quencher, single point]	–
CCCC[C@@H](C)/C=C(C)/C=C(\C)C(=O)NC1=C[C@@](O)(/C=C/C=C/C=C/C(=O)NC2=C(O)CCC2=O)[C@@H]2O[C@@H]2C1=O	inconclusive: 17.8 µM [quencher, side channel, partial curve]	–
CN1/C(=C\C=C2/SC(=S)NC2=O)C(C)(C)c2ccccc21	inconclusive: 31.6 µM [fluorescent, side channel, partial curve]	–
COc1ccc(C(=O)NNC(=O)Nc2ccc(Cl)cc2)cc1	inconclusive: 39.8 µM [inhibitor, single point]	–
Cc1ccc(C(=O)Nc2scc(-c3ccccc3)c2C(=O)O)o1	inconclusive: 11.2 µM [quencher, side channel, partial curve]	–
CC(C)c1ccc(NC(=O)c2cccc(NC3=NC4CS(=O)(=O)CC4S3)c2)cc1 (stereo not given)	inconclusive: 22.4 µM [quencher, side channel, single point]	–
COc1ccc(CCN(C)CC(O)COC(c2ccc(F)cc2)c2ccc(F)cc2)cc1OC (stereo not given)	inconclusive: 12.6 µM [fluorescent, side channel, partial curve]	–
Cc1cccc(S(=O)(=O)Nc2nc3ccccc3nc2Nc2ccc3c(c2)OCO3)c1	inconclusive: 15.8 µM [quencher, side channel, partial curve]	–
COc1ccc(C(C)(C)C)cc1NC(=O)c1cc(S(=O)(=O)N(C)C)ccc1N1CCCC1	inconclusive: 28.2 µM [fluorescent, side channel, single point]	–
O=C(Nc1ccc(N2CCCC2)cc1)c1cc(Cl)ccc1Cl	inconclusive: 10 µM [quencher, side channel, partial curve]	–
Cc1ccc(N2NC(=O)/C(=C\c3cc4c(cc3[N+](=O)[O-])OCO4)C2=O)cc1C	inconclusive: 25.1 µM [quencher, side channel, partial curve]	–
Cc1cccc(-n2c(C)cc(C=C3C(=O)c4ccccc4C3=O)c2C)c1	inconclusive: 31.6 µM [quencher, side channel, single point]	–
